# Among all 300,000 compounds or so, about 1,200 (0.4%) were called active. Inconclusive means that the source gave no clear call. Such entries were picked first, then a sample of the others. The call rests on the fitted dose curve; in most records, active means well fitted inhibition curve with a large enough effect; inconclusive means small, poorly fitted or top-dose-only effect, or another doubt; inactive means no such curve, though single readings can be large or run the other way. Where the call is inconclusive, the potency comes from a doubtful curve fit.
# Target: Lysosomal alpha-glucosidase (Homo sapiens) (UniProt P10253)
# Assay: qHTS Assay for Inhibitors and Activators of Human alpha-Glucosidase Cleavage of Glycogen
# Conditions: recombinant GAA, glycogen substrate, Amplex Red glucose oxidase fluorescence; series mostly up to 76.4 µM
# Excerpt: NIH Chemical Genomics Center [NCGC] NIH Molecular Libraries Probe Production Centers Network [MLPCN] MLPCN Grant: R03 MH084841-01 Assay Submitter (PI): Wei Zheng NCGC Assay Overview: Alpha-glucosidase is responsible for the hydrolysis of terminal, non-reducing 1,4-linked alpha-D-glucose residues, which releases alpha-D-glucose. It is a lysosomal hydrolase that is required for the degradation of a small percentage (1-3%) of cellular glycogen in humans. Deficiency of this enzyme results in glycogen-storage disease type II (GSDII), also referred to as Pompe disease, an autosomal recessive disorder. Structurally normal glycogen is accumulated in the lysosomes and cytoplasm in affected patients, primarily in muscle tissues. Excessive glycogen storage within lysosomes may interrupt normal functioning of other organelles and leads to cellular injury. In turn, this leads to enlargement and dysfunction of the entire organ involved (eg: cardiomyopathy and muscle weakness). It has been reported that the improper folding and trafficking of alpha-glucosidase resulting from genetic mutations may account for a significant number of Pompe patients. […] We optimized this alpha-glucosidase assay in 1536-well plate format for identification of novel small molecule inhibitors or activators with structures other than the sugar analogs in order to develop new pharmacological chaperones. Previous assays of alpha-Glucosidase have utilized a non-natural fluorescent substrate to probe enzyme activity. The present assay measures enzyme activity on glycogen using a coupled-assay system to glucose oxidase.
# NCGC Assay Protocol Summary: This is an enzyme assay using glycogen from bovine liver (Sigma catalog #: G0885) as the substrate and recombinant human alpha-glucosidase as the enzyme preparation. Upon hydrolysis of the substrate, the glucose product can be detected using the Amplex Red Glucose Oxidase Assay Kit (Invitrogen catalog #: A22189). The product of this reaction can be read with a fluorescence plate reader with an excitation at 573 nm and an emission at 610 nm. Data were normalized to the controls for basal activity (without enzyme) and 100% activity (with enzyme). The AC50 values were determined from concentration-response data modeled with the standard Hill equation. Assay buffer for enzyme reaction: 50 mM citric acid (titrated with potassium phosphate to pH 5.0), 0.01% Tween-20 (pH 5.0 is an optimal condition for this enzyme assay) Assay buffer for Amplex Red reaction: Tris-HCl, pH 7.5 1536-well assay protocol for the alpha-glucosidase assay: (1) Add 2 ul/well alpha-glucosidase enzyme solution (4 nM final) (2) Add 23 nL compounds in DMSO solution. The final titration was 0.7 nM to 77 uM. (3) Add 1 ul of glycogen substrate solution (30 ug) (4) Incubate at 37 C for 40 min (5) Add 2 ul tris-HCl buffer with Amplex Red reagents (6) Incubate 45 min at room temperature. (7) Detect the assay plate in a ViewLux plate reader (PerkinElmer) with Ex=573 nm and Em=610nm. Keywords: Alpha-glucosidase, Pompe Disease, pharmacological chaperone, chaperone therapy, high throughput screening, alpha-glucosidase inhibitor, MLSMR, MLSCN, NIH Roadmap, qHTS and NCGC
# Potency means the concentration at half of the fitted maximal effect.
row,SMILES,Potency
1,CSCCC1NC(=S)N(Cc2ccccc2)C1=O (centres undefined),"inconclusive: 44.7 µM [inhibitor, partial curve, poor fit]"
2,O=C(NC1CC2CCCC(C1)N2S(=O)(=O)c1ccccc1)C1CCCCC1 (centres undefined),"inconclusive: 7.08 µM [inhibitor, single point]"
3,CCOC(=O)/C(=N\Nc1ccccc1Cl)N(C)C1CCS(=O)(=O)C1 (centres undefined),"inconclusive: 12.6 µM [inhibitor, partial curve]"
4,Oc1ccc(-c2nc3ccccn3c2Nc2ccc3c(c2)OCCO3)cc1,active: 12.6 µM
5,CCOc1ccc(-c2csc(NNC3=NCCCCC3)n2)cc1,"inconclusive: 50.1 µM [inhibitor, single point]"
6,CCOc1cc(C2C(C(=O)OC)=C(C)NC3=C2C(=O)c2ccccc23)c(Br)cc1OC (centres undefined),"inconclusive: 22.4 µM [inhibitor, single point]"
7,Cc1coc2c1C(=O)C(=O)c1c-2ccc2c1CCCC2(C)C,inactive
8,CC(C)(C)c1cc(C(=O)NNc2ccc(OC(F)(F)F)cc2)n(Cc2ccccc2)n1,"inconclusive: 25.1 µM [inhibitor, partial curve]"
9,Cc1c(CC(=O)NCc2ccccc2)c(=O)oc2c(C)c(O)ccc12,"inconclusive: 31.6 µM [inhibitor, partial curve]"
10,Cc1cccc(OCc2nc(C#N)c(NCc3ccccc3Cl)o2)c1,"inconclusive: 12.6 µM [inhibitor, partial curve, poor fit]"
11,O=C(O)c1cc(N/N=C/C=C/c2ccccc2)ccc1Cl,"inconclusive: 31.6 µM [inhibitor, single point]"
12,Cc1cc(S(=O)(=O)N2CCOCC2)ccc1OCC(=O)N1CCCC1,"inconclusive: 3.55 µM [inhibitor, partial curve]"
13,O=C(O)c1ccc(Cl)c(S(=O)(=O)Nc2ccc3cn[nH]c3c2)c1,inactive
14,Cc1nc(NNC(=O)c2ccc([N+](=O)[O-])cc2)cc(-c2ccccc2)n1,"inconclusive: 3.55 µM [inhibitor, full curve, poor fit]"
15,CC1CCC(NC(=O)Nc2cccs2)CC1 (centres undefined),active: 15.8 µM
16,O=C(NNc1ncnc2sccc12)c1ccc(Cl)cc1,"inconclusive: 17.6 µM [inhibitor, partial curve]"
17,COc1cccc(OCC(=O)NNC(=S)Nc2ccc(Cl)cc2Cl)c1,active: 56.2 µM
18,COc1ccc(Nc2c(-c3ccc(Cl)cc3)nc3cnccn23)cc1OC,"inconclusive: 6.31 µM [inhibitor, full curve]"
19,COc1cccc(N=Nc2c(N)[nH][nH]c2=O)c1,"inconclusive: 11.2 µM [inhibitor, single point]"

# — PubChem BioAssay AID2100 (National Center for Advancing Translational Sciences (NCATS), 2009)
